{"source": "the supplement of paper PMC4723716", "note": "Over roughly 3,600 compounds, “viability index relative to DMSO control” has its median near 0.81; the lowest 2% begin near 0.13. The list shows a part of the results.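 Note: 384-well serum-free SaLSSA: MitoTracker Red CMXRos staining with saponin lysis, high-content imaging, treated-well particle count divided by plate-mean count of DMSO wells.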", "data": [{"test_system": "Plasmodium falciparum NF54 stage V gametocytes", "experiment": "viability index relative to DMSO control (fraction); higher = less gametocyte killing", "conditions": "1.25 µM, incubation time: 72 h", "values": [{"smiles": "CCCCCc1ccc(C(=O)N(C)CCCNc2ccnc3cc(Cl)ccc23)cc1", "viability index": 0.714}, {"smiles": "C=CCn1c(=N)n(CC(O)c2ccc(Cl)c(Cl)c2)c2ccccc21", "note": "(configuration not stated)", "viability index": 0.483}, {"smiles": "C[N+](C)(CC#Cc1ccccc1)CC#Cc1ccccc1", "viability index": 0.764}, {"smiles": "COc1ccc2c(c1)C(C)=CC(C)(C)N2C(=O)CSc1nnc(-c2ccc(C)cc2)o1", "viability index": 0.876}, {"smiles": "O=[N+]([O-])c1ccc(-c2ccc(C=NNc3nc(Nc4ccccc4)nc(Nc4ccccc4)n3)o2)cc1", "viability index": 0.626}, {"smiles": "CCOC(=O)c1c(C)oc2c1C(=O)c1ccccc1C2=O", "viability index": 0.902}, {"smiles": "COc1cccc(-c2ccc(O)c(CNC34CC5CC(CC(C5)C3)C4)c2)n1", "viability index": 0.577}, {"smiles": "CCCOC(=O)C1=C(C)NC2=C(C(=O)CC(c3ccc(OC)cc3)C2)C1c1cccc(F)c1", "note": "(configuration not stated)", "viability index": 0.898}, {"smiles": "O=C(Nc1ccccc1O)c1ccc(Cl)cc1", "viability index": 1.04}, {"smiles": "Cc1cccc2c1[nH]c1nc(SCC(C)C)nnc12", "viability index": 0.921}, {"smiles": "CCOC(=O)C1=C(C)N=c2sc(=Cc3ccccc3OCc3ccccc3)c(=O)n2C1c1ccccc1OC(C)C", "note": "(configuration not stated)", "viability index": 0.788}, {"smiles": "Sc1nc2ccc3nsnc3c2[nH]1", "viability index": 0.827}, {"smiles": "CC(C)Cc1ccc(C=CC(=O)NC2CC2)cc1", "viability index": 0.626}, {"smiles": "COc1ccc(-c2csc3ncn(N)c(=O)c23)cc1", "viability index": 0.92}, {"smiles": "COc1ccc(OCCNC(=O)c2ccccc2Cl)cc1", "viability index": 0.897}, {"smiles": "CC1CCN(CCCNc2ccc(C(=O)Nc3ccc(C(F)(F)F)cc3)cc2[N+](=O)[O-])CC1", "viability index": 1.01}, {"smiles": "O=C(Cc1cccs1)N1CCN(c2ccccn2)CC1", "viability index": 1.06}, {"smiles": "O=C(Nc1cccnc1)c1cc(-c2cccnc2)nc2ccc(Cl)cc12", "viability index": 0.539}, {"smiles": "O=C(NNS(=O)(=O)c1ccccc1[N+](=O)[O-])c1ccccc1", "viability index": 0.947}, {"smiles": "CCN(CC)C(CN1CCN(CC(C)C(=O)c2ccc(O)cc2)CC1)c1ccc(F)cc1", "note": "(configuration not stated)", "viability index": 0.791}, {"smiles": "Oc1ccc(Nc2ccnc3cc(Cl)ccc23)cc1", "viability index": 0.959}, {"smiles": "Cc1cc(Nc2ccc(C)c(C)c2)n2cnnc2n1", "viability index": 1.17}, {"smiles": "Cc1cc(Nc2cccc([N+](=O)[O-])c2)nc2cc(O)ccc12", "viability index": 0.819}, {"smiles": "C1CCC(CN2CCc3nc(N4CCCCC4)sc3C2)CC1", "viability index": 0.601}, {"smiles": "CCOC(=O)C1=C(C)NC2=C(C(=O)CC(c3ccc(OC)c(OC)c3)C2)C1c1cccc(C)c1", "note": "(configuration not stated)", "viability index": 0.68}, {"smiles": "N#Cc1c2c(c(N3CCN(C(c4ccccc4)c4ccccc4)CC3)n3c1nc1ccccc13)CCC2", "viability index": 1.23}, {"smiles": "Clc1ccccc1CN1CCc2nc(N3CCCCC3)sc2C1", "viability index": 0.798}, {"smiles": "CCOC(=O)C1=C(C)NC2=C(C(=O)CC(c3ccc(Cl)cc3)C2)C1c1ccc(Br)cc1", "note": "(configuration not stated)", "viability index": 0.725}, {"smiles": "O=C(Cc1c(F)cccc1Cl)Nc1cc(C(=O)N2CCN(Cc3ccccc3)CC2)ccc1N1CC2CC(C1)c1cccc(=O)n1C2", "note": "(configuration not stated)", "viability index": 0.324}, {"smiles": "CCOc1ccc(NC(=O)C(C)CSc2nc3ccc(NC(=O)CC)cc3s2)cc1", "note": "(configuration not stated)", "viability index": 1}, {"smiles": "COc1ccc2c(c1)-c1c(ssc1=S)C(C)(C)N2C(=O)c1cccc(Cl)c1", "viability index": 0.589}, {"smiles": "CC(C)(C)c1ccc(C(=O)N2CCCn3cccc3C2c2ccc(C(C)(C)C)cc2)cc1", "note": "(configuration not stated)", "viability index": 0.708}, {"smiles": "CC[n+]1c(C=Cc2ccc(Cl)cc2)ccc2ccccc21", "viability index": 0.738}, {"smiles": "CCOC(=O)c1cn(CC)c2cc(N3CCCCC3)c(F)cc2c1=O", "viability index": 0.573}, {"smiles": "CCOC(=O)c1cc(-c2ccc(C)cc2)n(CCC(=O)Nc2cccc(C(F)(F)F)c2)c1C", "viability index": 0.438}, {"smiles": "O=C(Cc1cccs1)N1CCC(n2c(Cc3ccc(F)cc3)nc3cccnc32)CC1", "viability index": 1.05}, {"smiles": "Fc1ccc(C2(CCCSc3nnc4c(n3)[nH]c3ccccc34)OCCO2)cc1", "viability index": 0.577}, {"smiles": "CSc1nnc(CCNC(=O)c2c(-c3ccccc3)noc2C)n1-c1ccc(F)cc1", "viability index": 0.865}, {"smiles": "O=Cc1c(OCc2ccc(Cl)cc2Cl)ccc2ccccc12", "viability index": 1.2}, {"smiles": "CCCCCCCCCCOC(=O)Cn1c(C)[n+](C)c2ccccc21", "viability index": 0.969}, {"smiles": "CCOc1ccc(Nc2cc(=O)oc3ccccc23)cc1", "viability index": 0.618}, {"smiles": "Cc1nc2c(C)c(-c3ccccc3)nn2c(O)c1C", "viability index": 0.889}, {"smiles": "Cc1cc(NCCN2CCCCC2)c2ccc3ccccc3c2n1", "viability index": 0.57}, {"smiles": "COc1ccc2cc(CNC3CCN(Cc4ccccc4)CC3)c(=O)[nH]c2c1", "viability index": 0.753}, {"smiles": "CCOC(=O)c1cc(-c2ccc(OC)cc2)n(CCC(=O)NCc2ccc(OC)cc2)c1C", "viability index": 1.08}, {"smiles": "COc1ccc(Nc2cc(C)nc(NCc3ccccc3)n2)cc1", "viability index": 0.555}, {"smiles": "CCOC(=O)C(C)Oc1cccc2c(=O)n(CC(=O)Nc3ccc(OC(F)(F)F)cc3)ccc12", "note": "(configuration not stated)", "viability index": 1.02}, {"smiles": "O=[N+]([O-])c1ccc(-c2nc3ccccc3n2-c2cc(-c3ccccc3)nn2-c2ccccc2)cc1", "viability index": 0.798}, {"smiles": "CN1CCc2c(sc3nc(SCc4ccc(F)cc4)n(-c4ccccc4)c(=O)c23)C1", "viability index": 0.726}, {"smiles": "COC(=O)C1=C(C)NC2=C(C(=O)CC(c3ccc(OC)cc3)C2)C1c1ccc(F)cc1", "note": "(configuration not stated)", "viability index": 0.691}, {"smiles": "COc1ccc(C2Nc3ccc(C(C)=O)cc3C3C=CCC32)cc1[N+](=O)[O-]", "note": "(configuration not stated)", "viability index": 0.821}, {"smiles": "Cn1nc(C(F)(F)F)c(C(=O)Nc2ccc(Cl)cc2)c1Sc1ccc(Cl)cc1", "viability index": 0.951}, {"smiles": "C=CC1CN2CCC1CC2[C@H](O)c1ccnc2ccc(OC)cc12", "note": "(some centres not stated)", "viability index": 0.785}, {"smiles": "COc1ccc2nc(C)cc(Nc3ccc(Cl)cc3)c2c1", "viability index": 1.01}, {"smiles": "Cc1ccc(C=Cc2ccc3ccccc3[n+]2C)cc1", "viability index": 0.754}, {"smiles": "COC1=C(Nc2cccc(C(F)(F)F)c2)C(=O)c2ccccc2C1=O", "viability index": 0.606}, {"smiles": "COc1ccc(-c2noc(CC(=O)Nc3ccccc3C#N)n2)cc1", "viability index": 1.02}, {"smiles": "COc1ccc(C=CC(=O)Nc2ccc3nc(N4CCN(C)CC4)cc(C)c3c2)cc1OC", "viability index": 1.01}, {"smiles": "CCOc1cc([N+](=O)[O-])cc(C=Nc2cccc(NC(=O)c3ccco3)c2)c1O", "viability index": 0.989}, {"smiles": "Cc1ccnc(NC(c2ccncc2)c2ccc3cccnc3c2O)c1", "note": "(configuration not stated)", "viability index": 0.942}, {"smiles": "COc1ccc(C=CC(=O)NC(=O)c2ccccc2O)cc1OC", "viability index": 0.693}, {"smiles": "Oc1ccc(Br)cc1C=NNc1nc2ccccc2[nH]1", "viability index": 0.981}, {"smiles": "CC(C)(C)OC(=O)N1CCC(c2c(C(=O)Nc3cccc(C(F)(F)F)c3)cnn2-c2ccc(F)cc2F)CC1", "viability index": 0.655}, {"smiles": "CCc1ccc2ncc(C(=O)OCCOC)c(O)c2c1", "viability index": 0.62}, {"smiles": "CC(=O)Nc1cc([N+](=O)[O-])ccc1N1CCOCC1", "viability index": 0.867}, {"smiles": "CCOC(=O)c1[nH]c(C)c(Cc2ccc(OCC)cc2)c1C", "viability index": 0.789}, {"smiles": "c1ccc2c(c1)OC13CCCCC1C2NCC3", "note": "(configuration not stated)", "viability index": 0.694}, {"smiles": "CN1C=C(c2ccc3ccccc3n2)C(c2c[nH]c3ccccc23)c2ccccc21", "note": "(configuration not stated)", "viability index": 0.848}, {"smiles": "CCOc1ccccc1CN1CCCC(C(=O)N2CCCCCC2)C1", "note": "(configuration not stated)", "viability index": 0.975}, {"smiles": "CC(=O)N(C1=C(N2CCOCC2)C(=O)c2ccccc2C1=O)c1ccc(I)cc1", "viability index": 0.14}, {"smiles": "Cc1ccc2nc(-c3ccc(NC(=O)c4ccc(S(=O)(=O)N5CC(C)CC(C)C5)cc4)cc3)sc2c1", "note": "(configuration not stated)", "viability index": 0.94}, {"smiles": "CC1(C)N=C(N)N=C(N)N1c1ccccc1", "viability index": 1.17}, {"smiles": "Cc1cccc(C)c1N(CC(=O)NCc1ccco1)S(C)(=O)=O", "viability index": 0.914}, {"smiles": "CCOc1ccc(NC(=O)CSc2nc3cc(OCC)ccc3[nH]2)cc1", "viability index": 1.16}, {"smiles": "CC1=C(CC(=O)c2cccc([N+](=O)[O-])c2)C(=O)c2ccccc2C1=O", "viability index": 0.865}, {"smiles": "CC(=O)NC1=NN(C(C)=O)C(c2ccc(Br)cc2)S1", "note": "(configuration not stated)", "viability index": 0.944}, {"smiles": "COC(=O)c1cc(NC(=S)NC(=O)c2c(OC)cccc2OC)cc(C(=O)OC)c1", "viability index": 0.99}, {"smiles": "CC1=NOC(=O)C1=Cc1cccs1", "viability index": 1.12}, {"smiles": "Cc1ccc([N+](=O)[O-])cc1-c1ccc(/C=C2/SC(=S)N(CC(=O)O)C2=O)o1", "viability index": 1.13}, {"smiles": "CC1CCN(C(=O)C(C)N(c2ccccc2)S(C)(=O)=O)CC1", "note": "(configuration not stated)", "viability index": 0.917}, {"smiles": "COc1ccc(CN2CCc3nnc(CCc4ccccc4)n3CC2)c(F)c1", "viability index": 0.933}, {"smiles": "CC(=O)N1c2ccc(C)cc2C(C)(c2ccccc2)CC1(C)C", "note": "(configuration not stated)", "viability index": 0.61}, {"smiles": "O=C1C2C(C(=O)N1c1ccc(F)cc1)C1(c3ccccc3)C(=O)C2(c2ccccc2)C(c2ccccc2)=C1c1ccccc1", "note": "(configuration not stated)", "viability index": 0.525}, {"smiles": "CCCOc1ccc(C=Nc2ccc(S(=O)(=O)Nc3ccccn3)cc2)cc1", "viability index": 0.985}, {"smiles": "COc1cc(-c2nc(-c3ccc(C)c(C)c3)c(-c3ccc(C)c(C)c3)[nH]2)cc(OC)c1O", "viability index": 0.592}, {"smiles": "CCOc1ccc(-n2c(=S)sc3c(=O)n(-c4ccc(C)cc4)c(SCC(=O)Nc4cc(OC)ccc4OC)nc32)cc1", "viability index": 0.341}, {"smiles": "CC(=O)NC(=Cc1ccc(OC(F)F)cc1)C(=O)O", "viability index": 0.909}, {"smiles": "CCCCCc1ccc(OCCCC[n+]2cccc(C)c2)c(CCCCC)c1", "viability index": 0.502}, {"smiles": "COc1ccc(C2C(C(=O)Nc3cnc4ccccc4c3)c3ccccc3C(=O)N2Cc2ccc(F)cc2)cc1", "note": "(configuration not stated)", "viability index": 0.819}, {"smiles": "CC(C)NC(=O)[C@@H]1C[C@@H](NCc2cccnc2)CN1Cc1ccc2ccccc2c1", "viability index": 0.625}, {"smiles": "N#Cc1ccccc1Cn1nc(-c2cccnc2)oc1=O", "viability index": 0.815}, {"smiles": "COc1cccc(C(C(=O)NC2CCCCC2)N(C(=O)c2snc(C(N)=O)c2N)c2ccc(C)cc2)c1OC", "note": "(configuration not stated)", "viability index": 0.792}]}]}
